The list shows a part of the results. Repeats are few or missing, and single values can be far off.
Legend:
Experiment in all cases: cell count relative to DMSO control; melanoma cells; higher = more viable cells
Conditions in all cases: library dose: standard library concentration; 72 h
G361 = tested on: G361
IPC-298 = tested on: IPC-298
IST-MEL1 = tested on: IST-MEL1
LB2518-MEL = tested on: LB2518-MEL
LOXIMVI = tested on: LOXIMVI
MEL-HO = tested on: MEL-HO
MZ2-MEL = tested on: MZ2-MEL
MeWo = tested on: MeWo
RPMI7951 = tested on: RPMI7951
RVH-421 = tested on: RVH-421
SkMel28 = tested on: SkMel28
SkMel2 = tested on: SkMel2
SkMel30 = tested on: SkMel30
SkMel5 = tested on: SkMel5
UACC257 = tested on: UACC257
UACC62 = tested on: UACC62
WM115 = tested on: WM115
WM1716 = tested on: WM1716
WM1745 = tested on: WM1745
WM3526 = tested on: WM3526
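Further: cells treated in 1,536-well plates, then fixed and DAPI-stained, with nuclei counted from automated high-throughput microscope images.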

| Compound | cell count (G361) | cell count (IPC-298) | cell count (IST-MEL1) | cell count (LB2518-MEL) | cell count (LOXIMVI) | cell count (MEL-HO) | cell count (MZ2-MEL) | cell count (MeWo) | cell count (RPMI7951) | cell count (RVH-421) | cell count (SkMel28) | cell count (SkMel2) | cell count (SkMel30) | cell count (SkMel5) | cell count (UACC257) | cell count (UACC62) | cell count (WM115) | cell count (WM1716) | cell count (WM1745) | cell count (WM3526) |
| --- | --- | --- | --- | --- | --- | --- | --- | --- | --- | --- | --- | --- | --- | --- | --- | --- | --- | --- | --- | --- |
| O=C(O)c1ccc(-c2c[nH]c3ncc(-c4ccccc4)cc23)cc1C1CCCC1 + COc1ccc(-c2ccc3c(N4CCOCC4)nc(N4C[C@@H](C)O[C@@H](C)C4)nc3n2)cc1CO [KU0063794] (first compound 0.8 µM, partner dose 0.1 µM) | 48.9% | 55.2% | 79.9% | 66.6% | 72% | 60.6% | 63.1% | 77.6% | 74.7% | 88.3% | 60.4% | 68.3% | 75.2% | 41.3% | 69.1% | 66.5% | 70.9% | 73.4% | 66.9% | 55.9% |
| CC1(C)NC(=O)N(c2ccc([N+](=O)[O-])c(C(F)(F)F)c2)C1=O [nilutamide] + CN(NC(=O)CC(=O)NN(C)C(=S)c1ccccc1)C(=S)c1ccccc1 [STA4783] (first compound 5 µM, partner dose 0.03 µM) | 29.4% | 80.5% | 25.8% | 28.1% | 66% | 81.6% | 115% | 13.9% | 89.8% | 96.4% | 24.4% | 64% | 78.6% | 26.6% | 99.2% | 50.7% | 23.2% | 82.2% | 28.1% | 94.5% |
| C[C@@H]1CCN(C(=O)CC#N)C[C@@H]1N(C)c1ncnc2[nH]ccc12 + COc1cc2c(Oc3ccc4[nH]c(C)cc4c3F)ncnc2cc1OCCCN1CCCC1 [cediranib] (first compound 5 µM, partner dose 2 µM) | 101% | 96.9% | 107% | 97.5% | 89.9% | 98.3% | 113% | 78.8% | 76.9% | 81.6% | 110% | 67% | 91.4% | 84.2% | 96% | 91.6% | 98.4% | 73.7% | 54.7% | 88.7% |
| COc1cc(Nc2ncc(F)c(Nc3ccc4c(n3)NC(=O)C(C)(C)O4)n2)cc(OC)c1OC [Tamatinib] + Oc1nc(-c2ccc(C(F)(F)F)cc2)nc2c1CSCC2 [XAV939] (first compound 2 µM, partner dose 10 µM) | 67.5% | 83.9% | 72.1% | 77.9% | 42.5% | 71.2% | 71.5% | 75.1% | 48.1% | 88.6% | 60.8% | 80.5% | 81.4% | 61.1% | 87.1% | 93.6% | 85.3% | 83.6% | 37.9% | 79.1% |
| O=c1[nH]nc(Sc2ncc([N+](=O)[O-])s2)n1-c1ccc2c(c1)OCCO2 + COc1cc(Nc2ncc(F)c(Nc3ccc4c(n3)NC(=O)C(C)(C)O4)n2)cc(OC)c1OC [Tamatinib] (first compound 1 µM, partner dose 2 µM) | 80% | 87.5% | 70.6% | 90.3% | 29.1% | 85.8% | 71.7% | 81.9% | 49.1% | 79.8% | 77.8% | 77.2% | 91.7% | 58.6% | 87.5% | 93.8% | 76.5% | 74.2% | 38.2% | 79.6% |
| Cn1cncc1[C@@](N)(c1ccc(Cl)cc1)c1ccc2c(c1)c(-c1cccc(Cl)c1)cc(=O)n2C [tipifarnib] + Oc1nc(-c2ccc(C(F)(F)F)cc2)nc2c1CSCC2 [XAV939] (first compound 0.05 µM, partner dose 10 µM) | 82.5% | 81% | 89.2% | 85.1% | 88.1% | 90.6% | 95.1% | 90.5% | 67.5% | 79.2% | 45.7% | 67.6% | 87.7% | 62.7% | 81.3% | 73% | 76.8% | 78.5% | 84.8% | 83.2% |
| O=C(Nc1cccc(Cl)c1)Nc1ncc(CCNc2ncnc3ccsc23)s1 + O=C1NC(=O)/C(=C/c2ccc(-c3ccc(F)cc3O)o2)S1 [AS252424] (first compound 0.004 µM, partner dose 5 µM) | 58.8% | 67.4% | 54.1% | 86.9% | 73.6% | 52.8% | 80.3% | 66.7% | 38.6% | 84.2% | 61.3% | 87.3% | 110% | 96.1% | 69.8% | 87.8% | 51.2% | 55.6% | 58.9% | 64.8% |
| CC1(C)NC(=O)N(c2ccc([N+](=O)[O-])c(C(F)(F)F)c2)C1=O [nilutamide] + CCCCCCCCCCCC1=C(O)C(=O)C=C(O)C1=O [Embelin] (first compound 5 µM, partner dose 6 µM) | 84.3% | 68.7% | 74.5% | 93.6% | 108% | 83.2% | 110% | 87.1% | 87.2% | 71.9% | 90.3% | 84.2% | 84.1% | 95% | 77.5% | 62.2% | 108% | 92% | 79.3% | 86.4% |
